Data set [1] has as its system fibronectin matrix assembly by IMR-90 cells.
The target of a further data set is T1, P12-Sepharose (Homo sapiens, UniProt P02751, C2386S/C2408S/C2410S/C2412S/C2421S/C2424S).
T1 construct: made in house; host or cells: chemical synthesis
The data set can be described thus: Affinity chromatography of III1-E on P12-Sepharose. The data set is classed as binding. Conditions: 1 ml of 250 μg/ml on 0.5-ml column. On the procedure:
(§1) Polypeptides were coupled to CNBr-activated Sepharose CL-4B according to the manufacturer's recommendations. The concentration of polypeptide was typically 8-10 mg polypeptide/ml of resin. Fibronectin fragments or polypeptides were applied to affinity columns and the flow through fractions were collected.
(§2) For affinity chromatography as used in Example IX, the columns were washed with 10 volumes of PBS. The bound proteins were eluted with 5 column volumes of 8M urea in PBS. The amount of protein eluted from the column was quantitated by measuring the A280 of the solutions.
(§3) In a reciprocal experiment, the III1 -E protein which contains most of the III1 module, was applied to affinity columns made of P11-Sepharose or P12-Sepharose. 1 ml of a 250 μg/ml solution was applied to 0.5-ml columns. […] The results of both affinity chromatography experiments indicate that the P1-binding site is located in the 11th type-I repeat.

Data set [2] in a line: Affinity chromatography of III1-E on Sepharose CL-4B control column. The data set is classed as binding. Conditions: 1 ml of 250 μg/ml on 0.5-ml column. On the procedure: as §1, §2, §3
The target in a further data set is T2, P11-Sepharose (Homo sapiens, UniProt P02751, C2342S/C2367S/C2369S/C2379S).
T2 construct: made in house; host or cells: chemical synthesis
T2 sequence (P02751 2340-2383 C2342S/C2367S/C2369S/C2379S): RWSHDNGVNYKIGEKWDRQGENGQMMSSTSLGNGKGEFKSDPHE
The data set can be described thus: Affinity chromatography of III1-E on P11-Sepharose. The format is binding. Conditions: 1 ml of 250 μg/ml on 0.5-ml column. On the procedure:
as §1, §2, §3

The subject of data set [3] is fibronectin. In words: Protein-protein binding assay: 125I-fibronectin to coated fibronectin. Details: species or system human. On the procedure:
(§4) Protein-protein binding assays were performed on Immulon 2, Removawell strips. Proteins were coated onto wells in 100 mM Na2 CO3, pH 9.5, in a moist chamber at 4° C. over night. Fibronectin was coated at a concentration of approximately 4 μg/ml. The wells were washed three times with PBS followed by blocking with 0.2% bovine serum albumin in PBS (0.2% BSA) at 37° C. for 1 hour. Radiolabeled proteins were added to the wells in 0.2% BSA at 5 μCi/ml. Proteins were allowed to bind for 24 hours at 37° C., then the wells were washed four times with 0.2% BSA, the wells were removed and the bound ^125 I radioisotope was measured.
(§5) All of the data represent specific binding, which is defined as binding to fibronectin minus binding to control wells coated with only 2% BSA. […] Binding data were analyzed by using the program LIGAND according to Munson et al., Anal. Biochem. 107, 220 (1980).
Fibronectin was coated onto plastic wells in concentrations ranging from 0-100 μg/ml, blocked with BSA, then the wells were probed with ^125 I-labeled 14 kDa fragment (FIG. 5, panel A) or ^125 I-labeled fibronectin (FIG. 5, panel B) for 2 hours at 37° C. The amount of radioiodinated protein bound was measured after washing extensively with 0.2% BSA in PBS. Each data point is the average of duplicate determinations.
The ability of the 14 kDa fragment to compete for fibronectin-fibronectin binding was then tested as follows. […] The solutions were incubated for 2 hours at 37° C., followed by extensive washing with 0.2% BSA in PBS, and measurement of the radioactivity bound to the wells. […]
Four polypeptides (of 30-34 amino acids each) were synthesized, representing the region of fibronectin encompassed by the 14 kDa fragment (polypeptides P1, P2, P3, and P4). […] The solutions were incubated for 2 hours at 37° C., followed by extensive washing with 0.2% BSA in PBS, and measurement of the radioactivity bound to the wells. […]
The binding data from the experiment shown in FIG. 16 was analyzed with the aid of the program LIGAND.

Data set [4] has as its system fibronectin. In words: In vitro cross-linking assay of 125I-fibronectin. The data set is classed as biochemical, human. The method, then: In vitro cross-linking assays were performed by adding various concentrations of either QE-C or FN 10 proteins to solutions of 5 μCi/ml ^125 I-fibronectin in 2% bovine serum albumin in PBS. The FN 10 protein is a negative control protein produced in the pGEX-2T system, which encompasses the 10th type III repeat of fibronectin, and has no effect in fibronectin-fibronectin binding assays. The solutions were incubated at 37° C. for 20 hours, then samples were collected in SDS-PAGE sample buffer either with or without 1% 2-mercaptoethanol, in order to analyze the ^125 I-fibronectin both under reducing and non-reducing conditions. After SDS-PAGE, the gels were dried and exposed to x-ray film to visualize the fibronectin bands. The fibronectin dimer migrates as a band of approximately 450,000 Daltons on a non-reduced gel. On a reduced gel fibronectin runs as a monomer at approximately 250,000 Daltons. Fibronectin from the matrix is disulfide cross-linked into high molecular weight (HMW) aggregates that typically run above 1,000,000 Daltons on a non-reducing gel, and these HMW aggregates run at the same location as monomeric fibronectin on a reducing gel. The extend of in vitro disulfide cross-linking was determined by quantitating the amount of ^125 I-fibronectin migrating as HMW aggregates vs. the total amount added to the lane. […]

For data set [5], the system named is fibronectin. The data set can be described thus: Protein-protein binding assay: 125I-14 kDa fragment to coated fibronectin. Details: species or system human. As to conditions: unlabeled competitor, 5 μg/ml fibronectin coat, 2 hours. The method, then:
as §4, §5
Fibronectin was coated onto plastic wells in concentrations ranging from 0-100 μg/ml, blocked with BSA, then the wells were probed with ^125 I-labeled 14 kDa fragment (FIG. 5, panel A) or ^125 I-labeled fibronectin (FIG. 5, panel B) for 2 hours at 37° C. The amount of radioiodinated protein bound was measured after washing extensively with 0.2% BSA in PBS. Each data point is the average of duplicate determinations. […]

Another data set deals with IMR-90 cells. The data set can be described thus: Matrix assembly assay, 1 hour: binding of 125I-fibronectin to cell surfaces. Conditions: 1 hour labeling. The data set is classed as cell-based, human.

T1 sequence (P02751 2384-2425 C2386S/C2408S/C2410S/C2412S/C2421S/C2424S): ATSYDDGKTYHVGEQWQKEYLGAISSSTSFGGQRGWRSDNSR

Consider `CC[C@H](C)[C@H](NC(=O)[C@H](Cc1ccc(O)cc1)NC(=O)[C@H](CCCCN)NC(=O)[C@H](CO)NC(=O)[C@@H](NC(=O)[C@H](Cc1c[nH]cn1)NC(=O)[C@H](CO)NC(=O)[C@@H]1CCCN1C(=O)[C@H](CCC(N)=O)NC(=O)[C@@H]1CCCN1C(=O)[C@H](C)NC(=O)[C@@H](N)CC(N)=O)[C@@H](C)CC)C(=O)N[C@@H](CC(C)C)C(=O)N[C@@H](CCCNC(=N)N)C(=O)N[C@@H](Cc1c[nH]c2ccccc12)C(=O)N[C@@H](CCCNC(=N)N)C(=O)N1CCC[C@H]1C(=O)N[C@@H](CCCCN)C(=O)N[C@@H](CC(N)=O)C(=O)N[C@@H](CO)C(=O)N[C@H](C(=O)NCC(=O)N[C@@H](CCCNC(=N)N)C(=O)N[C@@H](Cc1c[nH]c2ccccc12)C(=O)N[C@@H](CCCCN)C(=O)N[C@@H](CCC(=O)O)C(=O)N[C@@H](C)C(=O)N[C@H](C(=O)N[C@H](C(=O)N1CCC[C@H]1C(=O)NCC(=O)O)[C@@H](C)CC)[C@@H](C)O)C(C)C` [Polypeptide P1, NAPQPSHISKYILRWRPKNSVGRWKEATIPG], for which the “reduction of fibronectin matrix formation / incorporation into extracellular matrix” value in data set [1] is given as at least 80%.
Consider “III1 -E: Sequence ID No. 12; recombinant protein, residues 600 to 655 of human fibronectin, from pGEX-2T”, for which the “protein added to the column that bound to P12-Sepharose” value with P12-Sepharose is listed as 4.8%. For the same molecule, the “protein added to the column that bound to Sepharose CL-4B control” value in data set [2] came out at 2.3%. In addition, in the data set with P11-Sepharose, the “protein added to the column that bound to P11-Sepharose” value is “Approximately 25%”. In addition, the “concentration dependence of effect on fibronectin-fibronectin binding (biphasic)” value in the data set on fibronectin [3] (24 hours at 37° C.) is listed as “inhibit the binding at low concentrations, yet enhance binding at higher concentrations”.
Regarding “QE-C: Sequence ID No. 13; recombinant protein, residues 600-674 of human fibronectin, from pQE-12, His-tagged”, in the data set on fibronectin [4] (10 μM), the “fibronectin in the sample present in HMW aggregates” value was “approximately 20%”. The “effect on fibronectin disulfide cross-linking (HMW aggregates)” value in the data set on fibronectin [4] (37° C. for 20 hours, absence of cells) was “dramatic induction of disulfide cross-linking”.
In the case of fibronectin, the “competition for binding of 125I-14 kDa fragment to fibronectin” value in the data set with fibronectin [5] is on record as “did not compete”. Also, in the data set on fibronectin [3], the “effect on fibronectin-fibronectin binding” value is “did not compete”. In addition, the “binding of labeled protein to fibronectin coated on plastic” value with fibronectin [3] (fibronectin coated 0-100 μg/ml, 2 hours at 37° C.) was “dose dependent manner”. Moreover, the “inhibition of binding of 125I-fibronectin to cells” value in the data set with IMR-90 cells is recorded as “completely inhibited”.

Values taken from patent US5747452A, “Method of modulating tumor cell migration using fibronectin type III peptides” (La Jolla Cancer Research Foundation, priority 1995, dated 1998).
